Hit rate of the full screen: of about 43,000 compounds, about 200 (0.47%) were called active. Not shown: some 12% with an inconclusive outcome. The call rests on the fitted dose curve; in most records, active means well fitted cell-killing curve with a large enough effect; inconclusive means small, poorly fitted or top-dose-only effect, or effect the other way; inactive means flat fitted curve, though single readings scatter. This is one part of the list.
On the % scale 0 is the no-effect control and ±100 the full control effect.

The test is described as follows: Cell viability qHTS assay in S16 Pmp22-F2sN cells. Further: nearly all actives have a fitted effect of over 65% in size. The note with it: S16 Pmp22-F2sN Schwann cells viability, CellTiter-Glo, 24 h; series mostly up to 57.5 µM; activity change, negative = cytotoxicity: at the top concentration. In short, it runs like this:
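Viability was measured by CellTiter-Glo luminescence (15 min, room temperature). This followed 24 h at 37 °C of compound exposure (23 nL pin transfer) in S16 Pmp22-F2sN Schwann cells, 500-1,000 per well.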
For orientation: Quantitative high-throughput screening tests each substance at several concentrations.
On to `O=C(O)c1ccc2oc(=O)n(Cc3ccccc3)c2c1`, for which the “activity change, negative = cytotoxicity” value was inactive: 4.89%. With `O=C(Nc1c(Cl)cccc1Cl)c1cccc2c1C(=O)N(C1CCCCC1)C2` the figure was inactive: 4.98%. With `CC(C)Oc1ccc(CNC(=O)c2ccc(CS(=O)Cc3ccccc3Cl)o2)cc1` (configuration not stated) the figure was inactive: -15.4%. With `COc1ccc(OC)c(NC(=O)c2oc3c(c2C)-c2nn(Cc4ccc(Cl)cc4)cc2CC3)c1` the figure was inactive: -2.66%. On to `Cc1cn2c(=O)cc(COC(=O)c3cccc(NC(=O)COc4ccccc4)c3)nc2s1`, for which the “activity change, negative = cytotoxicity” value was inactive: -8.18%. With `Cc1cc(C)n2nc(-c3ccc(Cl)cc3)nc2n1` the figure was inactive: 11.6%. With `Cc1ccc2c(CC(=O)N3CCN(c4cccc(Cl)c4)CC3)coc2c1C` the figure was inactive: 6.65%; with `CC(=O)Nc1ccc(NC(=O)Cn2cc3c(n2)CCCCC3)cc1`, inactive: 0.436%; with `Cc1cccc(OCCSc2nc3ccc(NC(=O)COc4ccccc4C)cc3s2)c1`, inactive: 3.26%. With `CCC(=O)N1CCc2cc(CNC(=O)Cc3ccc(OC)c(OC)c3)ccc21` the figure was inactive: 33.2%; with `Cc1ccccc1Cn1cnc2c(oc3ccccc32)c1=O`, inactive: -18.4%; with `COc1cc(C(=O)N2CCc3c([nH]c4ccccc34)C2c2ccc(F)cc2)cc(OC)c1OC` (configuration not stated), inactive: -25.3%. For the compound `CC1=Nc2cc(C(=O)NC3CCC(C)CC3)ccc2Sc2c(C)ccc(C)c21` (configuration not stated), the “activity change, negative = cytotoxicity” value was inactive: 3.86%. With `COc1ccc(-c2cn3nc(N4CCC(C(=O)NCc5cccc(Cl)c5)CC4)sc3n2)cc1` the figure was inactive: 12.3%; with `COC(=O)c1ccc(Nc2nc(-c3ccc(C)cc3)nc3ccccc23)cc1`, inactive: 2.01%; with `CC(=O)N1CCc2c(sc3c2c(=O)n(Cc2ccccc2)c(=O)n3Cc2cccc(Cl)c2)C1`, inactive: -13.9%. With `COc1cc(-c2noc(-c3ccc(N4CCCC4)c([N+](=O)[O-])c3)n2)cc(OC)c1OC`, the “activity change, negative = cytotoxicity” value was inactive: 3.22%. With `Cc1ccc(-n2nc(C(=O)NCc3ccc(F)cc3Cl)c3c4ccccc4n(C)c3c2=O)cc1` the figure was inactive: -2.46%; with `FC(F)(F)c1ccc2c(c1)ncc1c(-c3ccccc3)nn(-c3ccccc3)c12`, inactive: 0.89%. With `CCN(CC)C(=O)Cn1ncc2c([nH]c3ccc(C)cc32)c1=O` the figure was inactive: 6.9%; with `COc1ccc(NC(=O)c2ccc3c(c2)N(Cc2cccc(Cl)c2)C(=O)c2ccccc2S3(=O)=O)cc1Cl`, inactive: -0.205%; with `COc1ccccc1-c1noc(-c2ccc(NCc3ccccc3)c([N+](=O)[O-])c2)n1`, inactive: 9.61%.

For `Cc1cc2nc(NC(=O)c3ccc(S(=O)(=O)N4CCOCC4)cc3)sc2cc1C`, the “activity change, negative = cytotoxicity” value was inactive: 2.56%. With `Cc1ccc(C)c(NC(=O)CCc2nc3cccnc3n2Cc2cccs2)c1` the figure was inactive: -2.51%; with `CCN(CC)C(=O)CSc1nc(-c2ccccc2)cc(-c2ccc(OC)cc2)c1C#N`, inactive: 0.0396%. Take `COc1cccc(NC(=O)Cn2c(=O)n(-c3ccccc3)c(=O)c3c4c(sc32)CCCC4)c1`: the “activity change, negative = cytotoxicity” value was inactive: -5.79%. For the compound `Cc1ccccc1-c1ccnc2c(-c3ccc(F)cc3)c(C)nn12`, the “activity change, negative = cytotoxicity” value is inactive: 7.04%.

The values are drawn from PubChem BioAssay AID1508642 (National Center for Advancing Translational Sciences (NCATS), 2021).
